# From the supplement of paper PMC4604168 (melanoma cell lines)
# The other results are listed elsewhere or left out. Most values come without repeats; read them as rough.
# System: A2058
# Experiment: cell count relative to DMSO control; melanoma cells; higher = more viable cells
# Conditions: library dose: low library concentration; 72 h
# 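Further: cell number obtained by counting DAPI-stained nuclei in high-throughput microscope images with image analysis software, screen run in 1,536-well plates.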
row,Structure (SMILES),cell count [%]
1,"C=CCNC1=C2C[C@@H](C)C[C@H](OC)[C@H](O)[C@@H](C)/C=C(\C)[C@H](OC(N)=O)[C@@H](OC)/C=C\C=C(/C)C(=O)NC(=CC1=O)C2=O [Tanespimycin] + Cn1cc(/C=C2\C(=O)Nc3cccnc32)c2ccccc21 [GW441756] (first compound 0.002 µM, partner dose 0.4 µM)",88.6
2,"CNC(=O)c1cc(Oc2ccc(NC(=O)Nc3ccc(Cl)c(C(F)(F)F)c3)cc2)ccn1 [sorafenib] + c1cc(-c2cnn3cc(-c4ccc(OCCN5CCCCC5)cc4)cnc23)ccn1 [Dorsomorphin] (first compound 0.4 µM, partner dose 0.4 µM)",102
3,"C[C@@H](Oc1cc(-c2cnn(C3CCNCC3)c2)cnc1N)c1c(Cl)ccc(F)c1Cl [Crizotinib] + COc1cc(N2CCC(N3CCN(C)CC3)CC2)ccc1Nc1ncc(Cl)c(Nc2ccccc2S(=O)(=O)C(C)C)n1 [NVP-TAE684] (first compound 0.2 µM, partner dose 0.08 µM)",93.9
4,"CNC(=O)c1cc(Oc2ccc(NC(=O)Nc3ccc(Cl)c(C(F)(F)F)c3)cc2)ccn1 [sorafenib] + CCCCCCCCCCCC1=C(O)C(=O)C=C(O)C1=O [Embelin] (first compound 0.4 µM, partner dose 1.2 µM)",89.7
5,"CS(=O)(=O)CCNCc1ccc(-c2ccc3ncnc(Nc4ccc(OCc5cccc(F)c5)c(Cl)c4)c3c2)o1 [lapatinib] + O=C(Nc1ccccc1)c1cc([N+](=O)[O-])ccc1Cl [GW9662] (first compound 0.8 µM, partner dose 2 µM)",92.5
6,"CS(=O)(=O)CCNCc1ccc(-c2ccc3ncnc(Nc4ccc(OCc5cccc(F)c5)c(Cl)c4)c3c2)o1 [lapatinib] + COc1ccc2c(c1)CCC1C2CCC2(C)C(NCCCCCCN3C(=O)C=CC3=O)CCC12 [U73122] (first compound 0.8 µM, partner dose 0.4 µM)",93.8
7,"CNC(=O)c1cc(Oc2ccc(NC(=O)Nc3ccc(Cl)c(C(F)(F)F)c3)cc2)ccn1 [sorafenib] + O=C(Nc1ccccc1)c1cc([N+](=O)[O-])ccc1Cl [GW9662] (first compound 0.4 µM, partner dose 2 µM)",105
8,"CS(=O)(=O)CCNCc1ccc(-c2ccc3ncnc(Nc4ccc(OCc5cccc(F)c5)c(Cl)c4)c3c2)o1 [lapatinib] + COc1ccc(-c2ccc3c(N4CCOCC4)nc(N4C[C@@H](C)O[C@@H](C)C4)nc3n2)cc1CO [KU0063794] (first compound 0.8 µM, partner dose 0.02 µM)",96.1
9,"CS(=O)(=O)CCNCc1ccc(-c2ccc3ncnc(Nc4ccc(OCc5cccc(F)c5)c(Cl)c4)c3c2)o1 [lapatinib] + O=C1NC(=O)/C(=C/c2ccc(-c3ccc(F)cc3O)o2)S1 [AS252424] (first compound 0.8 µM, partner dose 1 µM)",103
10,"CNC(=O)c1cc(Oc2ccc(NC(=O)Nc3ccc(Cl)c(C(F)(F)F)c3)cc2)ccn1 [sorafenib] + COc1cc(N2CCC(N3CCN(C)CC3)CC2)ccc1Nc1ncc(Cl)c(Nc2ccccc2S(=O)(=O)C(C)C)n1 [NVP-TAE684] (first compound 0.4 µM, partner dose 0.08 µM)",80.9
11,"CN1CCN(c2ccc3nc(-c4c(N)c5c(F)cccc5[nH]c4=O)[nH]c3c2)CC1 [Dovitinib] + COc1cc2ncnc(Nc3ccc(Oc4ccccc4)cc3)c2cc1OC [SrcI1] (first compound 0.1 µM, partner dose 2 µM)",93.7
12,"CN1CCN(c2ccc3nc(-c4c(N)c5c(F)cccc5[nH]c4=O)[nH]c3c2)CC1 [Dovitinib] + CC(C)CCN1c2nc(Nc3cc(F)c(O)c(F)c3)ncc2N(C)C(=O)C1C [BID1870] (first compound 0.1 µM, partner dose 0.2 µM)",90.2
13,"CN1CCN(c2ccc3nc(-c4c(N)c5c(F)cccc5[nH]c4=O)[nH]c3c2)CC1 [Dovitinib] + O=C1NC(=O)/C(=C/c2ccc(-c3ccc(F)cc3O)o2)S1 [AS252424] (first compound 0.1 µM, partner dose 1 µM)",96.5
14,"C=CCNC1=C2C[C@@H](C)C[C@H](OC)[C@H](O)[C@@H](C)/C=C(\C)[C@H](OC(N)=O)[C@@H](OC)/C=C\C=C(/C)C(=O)NC(=CC1=O)C2=O [Tanespimycin] + CCN(CC)CCCCNc1ncc2cc(-c3cc(OC)cc(OC)c3)c(NC(=O)NC(C)(C)C)nc2n1 [PD173074] (first compound 0.002 µM, partner dose 0.1 µM)",87.1
